# Measured values as given in the antibiotic and cytotoxicity screens of Wong et al. (2023).
# The other results are listed elsewhere or left out.
# Assays:
# HSkMC = human skeletal muscle cells; assay: cytotoxicity call (relative viability < 0.9); settings: 10 µM
# S. aureus RN4220 = assay: growth inhibition call (relative growth <= 0.2); settings: 50 µM
Compound,cytotoxicity call (HSkMC),growth inhibition call (S. aureus RN4220)
CC(C)NC(=O)N(C)C[C@H]1Oc2ccc(NC(=O)Cc3ccccc3)cc2C(=O)N([C@H](C)CO)C[C@H]1C,inactive,inactive
C[C@H](CO)N1C[C@H](C)[C@H](CN(C)CC2CCCCC2)OCCCC[C@H](C)Oc2ccc(NC(=O)NC3CCCCC3)cc2C1=O,inactive,inactive
CCCNC(=O)N[C@H]1CC[C@H](CC(=O)N2CCN(C)CC2)O[C@H]1CO,inactive,inactive
CC(C)C(O)=C1C(=O)OC(c2ccoc2)C2(C)C(O)C(O)C34OC5(C)OC3(C12)C(O)C1(O)C(O)C2(C)CC1(O5)C4(C)C2CC(=O)O (stereo not given),inactive,inactive
NC(=O)N1C(=O)[C@H]2[C@H](C1=O)[C@H]1C=C(CCCO)[C@@H]2[C@H](c2cccs2)N1Cc1cc2c(cc1Br)OCO2,inactive,inactive
CC(C)NC(=O)Nc1ccc2c(c1)C(=O)N([C@H](C)CO)C[C@@H](C)[C@H](CN(C)C(=O)Nc1ccc(C(F)(F)F)cc1)OCCCC[C@H](C)O2,inactive,inactive
C[C@H]1CN([C@@H](C)CO)S(=O)(=O)c2ccc(C#Cc3ccc(F)cc3)cc2O[C@@H]1CN(C)S(=O)(=O)c1ccc(F)cc1,inactive,inactive
C[C@@H]1CN([C@H](C)CO)C(=O)c2cccc(NC(=O)C3CCOCC3)c2O[C@@H]1CN(C)Cc1ccncc1,inactive,inactive
CSC(=N)NCCC[C@@H](N)C(=O)O,inactive,inactive
COc1ccc(NC(=O)Nc2ccc3c(c2)C(=O)N([C@H](C)CO)C[C@H](C)[C@@H](CN(C)S(C)(=O)=O)O3)cc1,inactive,inactive
